Experimental data as given in the BET-seq Pho4 binding data (Le et al. 2018).
The list shows a part of the results. These are noisy estimates, calculated here from bound and input reads.

Each sequence was assayed against T1, Pho4 (S. cerevisiae) (UniProt P07270) (assay: relative binding free energy (BET-seq); higher = weaker binding). Details: reference: library average.
T1 sequence: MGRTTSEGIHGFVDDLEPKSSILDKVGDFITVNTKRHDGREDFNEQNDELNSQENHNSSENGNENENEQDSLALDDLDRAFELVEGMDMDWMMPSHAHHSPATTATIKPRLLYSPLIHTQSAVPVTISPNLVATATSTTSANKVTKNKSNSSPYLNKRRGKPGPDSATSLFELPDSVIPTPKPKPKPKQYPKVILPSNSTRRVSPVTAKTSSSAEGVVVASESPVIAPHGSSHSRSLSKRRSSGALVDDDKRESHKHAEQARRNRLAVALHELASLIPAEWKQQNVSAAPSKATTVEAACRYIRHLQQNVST

Sequence	relative binding free energy
TGTCGCACGTGTAAGT	0.16 kcal/mol
AGGTACACGTGGGTAA	-0.13 kcal/mol
AGGGACACGTGCGGGC	0.05 kcal/mol
ATTGGCACGTGGAAAG	-0.12 kcal/mol
TTTAGCACGTGGGAAT	0 kcal/mol
GAATGCACGTGTAGTT	0.09 kcal/mol
AATATCACGTGTGTAT	0.07 kcal/mol
TAGGTCACGTGAGGTC	0.27 kcal/mol
TTTATCACGTGAAGGG	0.41 kcal/mol
TTGTTCACGTGAAGCG	0.28 kcal/mol
GATTTCACGTGCGTTT	0.32 kcal/mol
TTTACCACGTGGGAGG	-0.08 kcal/mol
ACGGTCACGTGTGCTG	0.07 kcal/mol
AGTGACACGTGGGCGT	-0.12 kcal/mol
GTTGTCACGTGAATTT	0.31 kcal/mol
TTGCGCACGTGGTCAT	-0.21 kcal/mol
AGTAACACGTGTTGGG	0.12 kcal/mol
GGAGTCACGTGATTGT	0.3 kcal/mol
GGCAGCACGTGCGGTT	-0.1 kcal/mol
AGGGTCACGTGATGAA	0.34 kcal/mol
AAGAACACGTGTGTTG	-0.05 kcal/mol
TAGATCACGTGAATAG	0.31 kcal/mol
ATTTTCACGTGTGGAG	0.23 kcal/mol
TGCAGCACGTGGGTAA	-0.15 kcal/mol
AGCTGCACGTGTGATG	0.1 kcal/mol
CTGTTCACGTGGGTGA	0.15 kcal/mol

Sequence	relative binding free energy
TGGGTCACGTGAAAAG	0.4 kcal/mol
TTTATCACGTGGGGGC	0.06 kcal/mol
GTAGTCACGTGGGCCG	0.07 kcal/mol
GGAAACACGTGTGTTA	-0.11 kcal/mol
TCGCGCACGTGTTGGT	-0.02 kcal/mol
ATTGCCACGTGAAGGG	0.07 kcal/mol
ACGTGCACGTGGGATT	-0.18 kcal/mol
GTTGACACGTGGTATA	-0.06 kcal/mol
GTTTGCACGTGCTCGT	-0.01 kcal/mol
TTATTCACGTGGGAAA	0.21 kcal/mol
TTTAGCACGTGGGTTG	-0.2 kcal/mol
GATTGCACGTGTAGCG	0.12 kcal/mol
TTCGGCACGTGTTTAT	0 kcal/mol
CGAGTCACGTGGGAGT	0.07 kcal/mol
GGTGGCACGTGGGTAT	-0.15 kcal/mol
CGTAACACGTGAGCGT	0.29 kcal/mol
GTCGGCACGTGGGTAC	-0.15 kcal/mol
GGGGCCACGTGGGGGT	-0.09 kcal/mol
CGGTGCACGTGCAGGG	-0.11 kcal/mol
TAAAACACGTGGGTGT	-0.12 kcal/mol
TCGTTCACGTGCTTTT	0.27 kcal/mol
GTTATCACGTGGAATT	0.1 kcal/mol
TTTTGCACGTGGGTGT	-0.1 kcal/mol
AACAGCACGTGGGGGT	-0.25 kcal/mol
GTCTTCACGTGAAGTG	0.37 kcal/mol
GAAGGCACGTGAGGGG	0.18 kcal/mol

Sequence	relative binding free energy
GGCGGCACGTGTGTTA	-0.1 kcal/mol
GTTCGCACGTGGTGGG	-0.06 kcal/mol
GTGAGCACGTGGGATT	-0.12 kcal/mol
CGTTACACGTGGGCTT	0.06 kcal/mol
GGGTACACGTGAATGT	0.38 kcal/mol
TCGTGCACGTGGTACG	-0.18 kcal/mol
GGGTACACGTGTTTGG	0.09 kcal/mol
TGTGTCACGTGCTTTG	0.03 kcal/mol
TTTGTCACGTGTGCAA	0.1 kcal/mol
TTCGTCACGTGGGATG	0.03 kcal/mol
AGACGCACGTGAGGTG	0.17 kcal/mol
ATCGTCACGTGCGGTA	0.1 kcal/mol
TTCTTCACGTGAGTAA	0.33 kcal/mol
ATCTTCACGTGGAGGG	0.14 kcal/mol
ATGGGCACGTGTGGCT	0.01 kcal/mol
TTAGACACGTGTGCGT	0.02 kcal/mol
GGTGCCACGTGGTAGT	0.02 kcal/mol
AGGTTCACGTGGGCTA	0.14 kcal/mol
CTAAGCACGTGGGGTG	-0.29 kcal/mol
TTTCGCACGTGATGGG	0.07 kcal/mol
TGATCCACGTGTTATA	0.08 kcal/mol
TTGCTCACGTGTTGCG	0.23 kcal/mol
GGGCTCACGTGTCTGG	0.35 kcal/mol
CCAGGCACGTGGTGGT	-0.28 kcal/mol
GCTGTCACGTGTAGTT	0.08 kcal/mol
GGGAGCACGTGAGGTT	0.23 kcal/mol

Sequence	relative binding free energy
AACGTCACGTGGGGTG	-0.09 kcal/mol
TTGGGCACGTGAGTAT	0.15 kcal/mol
TTAAGCACGTGTTAAA	0.04 kcal/mol
TTTTGCACGTGTTGCG	0.15 kcal/mol
TTTGGCACGTGGTGCT	-0.26 kcal/mol
TTTTTCACGTGTTCTA	0.3 kcal/mol
GAGTTCACGTGACGTT	0.42 kcal/mol
TTTATCACGTGCGGTA	0.14 kcal/mol
TCTAGCACGTGGGAAT	0.03 kcal/mol
TGTGTCACGTGGATAT	0.12 kcal/mol
TCTATCACGTGAGAGT	0.3 kcal/mol
GTAGGCACGTGAAATG	0.21 kcal/mol
TCTGTCACGTGGGGGT	0.06 kcal/mol
TTCGGCACGTGTGGTT	0 kcal/mol
GTTTCCACGTGGGGTT	-0.01 kcal/mol
GGTGGCACGTGGTTTT	0.02 kcal/mol
TGTAACACGTGGTGTA	-0.08 kcal/mol
CGGGGCACGTGTGTTG	-0.07 kcal/mol
GTGGGCACGTGTATTC	0.16 kcal/mol
TTCGACACGTGGGGCT	-0.1 kcal/mol
CTGGTCACGTGGGTCA	0.03 kcal/mol
GGGTCCACGTGAGGGT	0.23 kcal/mol
GTCTGCACGTGATGTG	0.1 kcal/mol
AGAGTCACGTGCTAGT	0.06 kcal/mol
TTGGTCACGTGTCTTG	0.19 kcal/mol
GGTTGCACGTGTGGAA	0.16 kcal/mol

Sequence	relative binding free energy
ATGTACACGTGCGATT	0.2 kcal/mol
GGTCCCACGTGTTGGG	-0.03 kcal/mol
AGTATCACGTGGGCTT	-0.11 kcal/mol
GAGGACACGTGGGATT	-0.1 kcal/mol
GTGTACACGTGGTAGG	-0.05 kcal/mol
AAAGGCACGTGTAGTA	0.02 kcal/mol
TAGTACACGTGTCGTG	0.03 kcal/mol
AGTGCCACGTGAGAGG	0.02 kcal/mol
CTTGTCACGTGTTATA	0 kcal/mol
TGTATCACGTGCATGA	0.14 kcal/mol
AGGGTCACGTGGCTAA	-0.04 kcal/mol
TGGGACACGTGAAATG	0.15 kcal/mol
CTTGGCACGTGGCTGT	-0.17 kcal/mol
GTGGGCACGTGAGAGA	0.15 kcal/mol
TATTTCACGTGGCTTT	0.15 kcal/mol
GGAAGCACGTGGTTAG	-0.18 kcal/mol
TGTAGCACGTGTTCGA	-0.21 kcal/mol
AAACGCACGTGTGGGT	-0.08 kcal/mol
GGAGTCACGTGTTTAA	0.26 kcal/mol
TATTGCACGTGCGATT	-0.1 kcal/mol
TTTTACACGTGTTCGT	0.2 kcal/mol
TTGAACACGTGTCGGG	0.07 kcal/mol
TGTTACACGTGAAGGC	0.37 kcal/mol
TGTAACACGTGATTGA	-0.01 kcal/mol
TTATCCACGTGAGTGG	0.12 kcal/mol
TTATGCACGTGCTTTG	-0.06 kcal/mol

Sequence	relative binding free energy
CGTAACACGTGGTGAG	-0.08 kcal/mol
TGGATCACGTGGTCAG	0.04 kcal/mol
GGTATCACGTGTGCGT	0.22 kcal/mol
TGGTGCACGTGCGCGA	-0.21 kcal/mol
TTGAACACGTGTGTTT	0.02 kcal/mol
AGTGTCACGTGGTACA	-0.02 kcal/mol
CGTGACACGTGGGTAT	-0.09 kcal/mol
AAGGACACGTGGGGTT	-0.15 kcal/mol
TGGGTCACGTGTCAAT	0.05 kcal/mol
TGATTCACGTGTAATA	0.22 kcal/mol
TGGCGCACGTGGTTCG	-0.09 kcal/mol
ATAGTCACGTGTCGGT	0.13 kcal/mol
AAAGGCACGTGTTCGT	-0.23 kcal/mol
TAGGTCACGTGCGTGC	-0.04 kcal/mol
ATTTTCACGTGTATTT	0.08 kcal/mol
TATGGCACGTGATCGT	-0.07 kcal/mol
GGGGACACGTGCATTT	0.26 kcal/mol
ATTTTCACGTGCTATA	0.21 kcal/mol
TAAGGCACGTGAGGGG	0.07 kcal/mol
GATTTCACGTGTTAAG	0.34 kcal/mol
GGCCTCACGTGGTGGA	0.14 kcal/mol
TGTTACACGTGCAATA	0.22 kcal/mol
TCTGGCACGTGTGCGT	-0.08 kcal/mol
GACTACACGTGGAGGT	0.27 kcal/mol
TTGTGCACGTGAGTCT	0.09 kcal/mol
GTAGTCACGTGAGCGT	0.28 kcal/mol

Sequence	relative binding free energy
TTTATCACGTGGTGGA	0.26 kcal/mol
TGGTTCACGTGGGAGA	0.3 kcal/mol
TCAGGCACGTGTTGGT	-0.02 kcal/mol
TATTTCACGTGGGAGT	0.33 kcal/mol
GGGGTCACGTGGTAGT	0.24 kcal/mol
AGTTGCACGTGGAAGT	0.05 kcal/mol
GAGTACACGTGGATGA	0.18 kcal/mol
GTTTTCACGTGTGGGC	0.34 kcal/mol
ATGTGCACGTGTGAAT	0.07 kcal/mol
CTGTTCACGTGATGTA	0.34 kcal/mol
TAAATCACGTGGGCTT	-0.02 kcal/mol
AAAATCACGTGTGTGG	0.18 kcal/mol
TTGAACACGTGAAGAT	0.26 kcal/mol
TTCTTCACGTGATGTT	0.34 kcal/mol
GTTGTCACGTGGCGCT	0.02 kcal/mol
CTGGTCACGTGGGCAT	-0.18 kcal/mol
AATTTCACGTGGGATT	0.16 kcal/mol
TTGGGCACGTGGTGTG	-0.12 kcal/mol
GTAGTCACGTGGTCCG	0.05 kcal/mol
TTTGCCACGTGTAGTT	0.03 kcal/mol
GTTTGCACGTGCAGGA	0.06 kcal/mol
TGCTCCACGTGGAGGG	0.05 kcal/mol
TAAGTCACGTGGCCGT	-0.01 kcal/mol
TTGAACACGTGTAGCT	0.01 kcal/mol
GTTCACACGTGGTGAG	-0.03 kcal/mol
GTATCCACGTGATGTG	0.23 kcal/mol

Sequence	relative binding free energy
TGTGCCACGTGATATT	0 kcal/mol
AGTTACACGTGATTGC	0.25 kcal/mol
TAGTACACGTGTTAAT	-0.01 kcal/mol
TACTGCACGTGTGCGG	-0.01 kcal/mol
TTTTACACGTGGGTAC	-0.02 kcal/mol
TTATGCACGTGGTATC	-0.1 kcal/mol
TTGTGCACGTGTATAT	0.15 kcal/mol
AGGAACACGTGAGGCT	0.46 kcal/mol
GGATTCACGTGTAGGC	0.22 kcal/mol
TGGTGCACGTGCTCGA	-0.05 kcal/mol
CTAGGCACGTGTTAAT	-0.13 kcal/mol
AATGACACGTGTGGGA	0.1 kcal/mol
GTGTACACGTGGGATC	-0.11 kcal/mol
CTGGACACGTGCGTGG	-0.16 kcal/mol
AGTGGCACGTGCGAGA	-0.13 kcal/mol
ATGAGCACGTGTTGTC	-0.17 kcal/mol
GGGGTCACGTGATACT	0.17 kcal/mol
GGGTTCACGTGTCTGG	0.29 kcal/mol
CTGGTCACGTGATTAG	0.2 kcal/mol
TTGTACACGTGGTCTG	-0.08 kcal/mol
CATTGCACGTGAGGGA	0.22 kcal/mol
GTGGTCACGTGCTGTG	0.11 kcal/mol
GTATTCACGTGGGAAG	0.23 kcal/mol
TGTTGCACGTGCGACG	0.01 kcal/mol
TATGGCACGTGGATGT	-0.18 kcal/mol
CCGTGCACGTGGGGGA	-0.28 kcal/mol

Sequence	relative binding free energy
GGTGGCACGTGACGTG	0.08 kcal/mol
TATGGCACGTGGGTTT	-0.11 kcal/mol
GTAGGCACGTGTGATC	0.1 kcal/mol
GGGGACACGTGAGTGC	0.21 kcal/mol
ATCGTCACGTGTTTAA	0.03 kcal/mol
TAGTTCACGTGGAGTG	0.22 kcal/mol
TTGTTCACGTGTTTCG	0.3 kcal/mol
TGCTGCACGTGGCGTA	-0.1 kcal/mol
TCAAACACGTGTGGTT	0.01 kcal/mol
GTAGTCACGTGTGTGT	0.3 kcal/mol
ATGTGCACGTGGGGGA	-0.06 kcal/mol
GGATTCACGTGTTGCG	0.31 kcal/mol
TAGTTCACGTGTGTAA	0.17 kcal/mol
CATGTCACGTGGTGGA	0.05 kcal/mol
TTGGGCACGTGATAGC	-0.13 kcal/mol
GTATACACGTGTAGTG	0.01 kcal/mol
TAAAGCACGTGGATGT	-0.03 kcal/mol
TTTACCACGTGTAGGA	0.02 kcal/mol
TCGGGCACGTGAGGCA	0.07 kcal/mol
TTGTACACGTGGTCAG	0.02 kcal/mol
AACGGCACGTGGGGTA	-0.29 kcal/mol
TCTGGCACGTGATGGT	-0.03 kcal/mol
